Data from ChEMBL document CHEMBL4888484, “Replenishing the malaria drug discovery pipeline: Screening and hit evaluation of the MMV Hit Generation Library 1 (HGL1) against asexual blood stage Plasmodium falciparum ,using a nano luciferase reporter read-out” (2022).
The whole screen tested about 150,000 compounds, of which about 540 (0.36%) showed an effect of 50% or more. This is one part of the list.

The molecules below were run on Plasmodium falciparum (assay: Primary screen in NF54 nanoGlo assay, in single point, at 2uM, 72h; a lower Z score goes with more inhibition). Conditions: timepoint 72 hour.
Format: functional, Erythrocyte

| Structure (SMILES) | % Inhibition | Z score |
| --- | --- | --- |
| CCc1ccc(CNC(=O)c2cnn(-c3ncccc3-c3nc(C)no3)c2C)cc1 | -12% | 1.82 |
| COc1cccc(C(=O)N2CCc3c(c(-c4nncn4CC4CC4)nn3C)C2)c1 | -17% | 2.5 |
| COc1c(Br)cccc1CCN=C(N(C)C)N(C)C | -7% | 0.96 |
| O=C(NCc1cccc(Cl)c1F)c1ncoc1C1CC1 | -27% | 3.43 |
| CC(C)C(=O)NCC(=O)N1CC[C@@]2(CCCN(CCCc3ccccc3)C2)C1 | -7% | 1.41 |
| COCCC(=O)NCCc1ncc(C)n1C(C)C | -13% | 1.43 |
| CCN(CC)c1onc(-c2ccccc2)c1CN(C[C@H]1CCCO1)C(=O)c1ccc(F)cc1 | -2% | 0.33 |
| Cc1ccc(=O)n(CC(=O)N2CCOC[C@H]2C2CCC2)n1 | 30% | -3.38 |
| CC(C)c1cc(C(=O)N(C)Cc2nccn2C)no1 | 1% | -0.25 |
| Cc1ccc2c(c1)[C@@H](NCc1ccco1)CC2 | -5% | 0.61 |
| O=C(O)C[C@@H]1CCN(C(=O)C2CCCC2)C[C@@H]1CCN1CCN(c2ccccc2)CC1 | 4% | -0.69 |
| Cn1nc(CN2C[C@H](O)[C@@H](N3CCCOCC3)C2)c2c(Cl)cccc21 | -7% | 1.4 |
| CCn1nncc1CN1CCOC[C@H]1c1ccc(COC)o1 | 2% | -0.47 |
| CN1CCCN(C(=O)c2nn(C)c3c2CN(Cc2ccc(OC(F)(F)F)cc2)C3)CC1 | -11% | 1.42 |
| O=C(NCCc1ccc(-c2ccsc2)s1)c1ccsc1 | -4% | 0.81 |
| CC[C@H](NCc1cc2ccc(C)cc2nc1N1CCOCC1)c1cccs1 | -11% | 2.12 |
| Cc1cccc(-c2noc(CNC(=O)c3ccccc3CCc3ccccc3)n2)c1 | -6% | 0.89 |
| CC(C)(O)[C@H]1CCN(S(=O)(=O)c2ccc3[nH]cnc3c2)C1 | -27% | 2.34 |
| CN1C(=O)[C@H](Cc2nc(C3CC3)nn2-c2cccc3cccnc23)N(C)C1=O | 1% | -0.08 |
| Cc1cc2nc3n(c(=O)c2n1CC(=O)N[C@@H](C)c1ccccc1)CCCCC3 | -1% | 0.23 |
| O=c1[nH]c2ccccc2c(=O)n1[C@H]1CCS(=O)(=O)C1 | -3% | 0.28 |

| Structure (SMILES) | % Inhibition | Z score |
| --- | --- | --- |
| C[C@H]1CN(C(=O)c2cc(-c3ccc(F)cc3)[nH]n2)CCO1 | -9% | 0.78 |
| CC(=O)N[C@@H](Cc1ccccc1)C(C)(C)C | 6% | -0.94 |
| O=C(NCc1ccco1)N1CCOc2ccc(C(=O)N3CCCC3)cc2C1 | 2% | -0.29 |
| CC1CC(C(=O)O)CCN1C(=O)OC(C)(C)C (stereo not drawn) | -9% | 1.33 |
| CC(=O)c1cnc(NCc2ccc(N3CCC[C@H](C)C3)cc2)nc1C | -7% | 0.64 |
| COC1CCN(C(=O)N(C[C@H](O)c2ccc(F)cc2)C2CC2)CC1 | 10% | -1.96 |
| CCn1c([C@H]2CCCN(C(C)=O)[C@H]2C)nnc1N1CCC(OC)CC1 | -11% | 1.88 |
| CCN1c2ccc(F)cc2C(=O)NC12CCN(C(=O)c1cc(F)cc(F)c1)CC2 | 2% | -0.33 |
| Cc1c(CNCCN2CCCC[C@@H]2CO)cc(C#N)n1C | -4% | 0.73 |
| Cc1c[nH]c([C@H](C)NC(=O)Cc2c(C)n[nH]c2C)n1 | 7% | -0.88 |
| COc1ccccc1Cc1n[nH]c([C@@H](N)C(C)(C)C)n1 | -9% | 1.8 |
| N#Cc1cccnc1NCCNC(=O)[C@]1(NC(=O)OCc2ccccc2)CCOC1 | 15% | -1.75 |
| Nc1nc2c(c(NC3Cc4ccccc4C3)n1)CCNCC2 | 4% | -0.52 |
| CCc1ccc(S(=O)(=O)N2CC[C@@]3(CO)CN(Cc4ccccc4)C[C@H]3C2)cc1 | -5% | 0.56 |
| O=C(Nc1ccccc1Cl)c1cc(OCc2ccccc2)no1 | -10% | 1.84 |
| COc1ccc(CNc2nccc(N3CCC[C@H](O)C3)n2)cc1OC | 5% | -0.71 |
| Cc1cc(C(=O)NCc2ccccc2)cc2c1N(C)S(=O)(=O)c1ccccc1-2 | 5% | -0.58 |
| CCC(C)(C(=O)NC1CCCC1)N(Cc1cccs1)C(=O)C1CCC(=O)N1 (stereo not drawn) | 1% | -0.15 |
| O=C(CN(Cc1ccccc1)C1CCCCC1)NC1CCOCC1 | -8% | 1.02 |
| CC1=C(CCN2CCN(CCO)CC2)C(C)(C)CCC1 | 1% | -0.12 |
| O=C(NCc1ccccc1)Nc1cnn(-c2ncncc2N2CCOCC2)c1 | -3% | 0.29 |

| Structure (SMILES) | % Inhibition | Z score |
| --- | --- | --- |
| CC(=O)N1CCN(C(=O)[C@H](C)N2C(=O)COc3ccc(C(=O)COc4ccc(F)c(F)c4)cc32)CC1 | -13% | 1.81 |
| CC(C)c1nnc(Cn2ncc3ccccc3c2=O)o1 | -6% | 0.81 |
| Cc1cc(=O)[nH]c(CCNC(=O)c2cccc(OC(F)F)c2)n1 | -3% | 0.62 |
| CNc1ccc(C)cc1CN[C@@H]1COC[C@@H]1O | -4% | 0.49 |
| Cc1cc(C)c(C#N)c(N2CCC(CCCn3ccnc3)CC2)n1 | -5% | 0.52 |
| COc1ccc(CC[C@H]2CCCCN2C(=O)c2cnc[nH]2)cc1OC | -2% | 0.33 |
| CCCN1N=C(C(=O)N2CCCCCC2)S(=O)(=O)c2ccc(C)cc21 | -9% | 1.16 |
| Cc1cc(-c2ccc(C)c(S(=O)(=O)CCC(=O)Nc3c(C)cccc3C)c2)on1 | 14% | -1.89 |
| O=C(CCS(=O)(=O)c1cccc2nsnc12)Nc1ccc2c(c1)OCO2 | -7% | 1.01 |
| O=C(NCc1ccnc(-c2cccnc2)c1)c1ccc(Br)cc1 | -5% | 0.72 |
| CCn1ccc(C(=O)N2CCC(Cc3ccc(COCCOC)cc3)CC2)n1 | -13% | 2.42 |
| Cn1nc(C(=O)N2CC3(CCC3)[C@@H]2C2CC2)cc1OC(F)F | -1% | 0.15 |
| O=C(c1cc(C2CC2)[nH]n1)N1CCCCC[C@@H]1CCO | -2% | 0.29 |
| C[C@H]1COC2(CCN(CC3(O)CCCCC3)CC2)O1 | -1% | 0.17 |
| Cc1ccc(C)c(S(=O)(=O)NC[C@H](Cc2ccccn2)C(=O)O)c1 | -4% | 0.89 |
| CCn1c(CCc2ccc(NC(=O)c3ccc4c(c3)OCO4)cc2)nc2ccccc21 | -16% | 1.63 |
| Cc1nc(C)c(S(=O)(=O)NC2CC(Cl)(Cl)C2)s1 | -1% | 0.19 |
| Cc1n[nH]c(C)c1NC(=O)c1cnn(C)c1 | 30% | -3.5 |
| Cc1ccc(CNC(=O)[C@@H]2CCC(=O)NC(=O)N2)o1 | -10% | 1.96 |
| Cc1cccc(CC(=O)N2CC3(C[C@H](N4CCCC4)CO3)C2)c1 | -9% | 1.05 |
| CC(C)NCCN1CCC[C@H](n2ccc(C(F)(F)F)n2)C1 | -8% | 1.05 |

| Structure (SMILES) | % Inhibition | Z score |
| --- | --- | --- |
| OC1CC(c2cc(NC3CCCCCC3)ncn2)C1 (stereo not drawn) | 3% | -0.55 |
| CCC1=NO[C@H](C(=O)NCc2noc(-c3ccccc3)n2)C1 | -14% | 1.84 |
| O=C(Cn1ncc(=O)c2ccccc21)NC1CC1 | 0% | 0.08 |
| CCCC(=O)Nc1ccc2c(c1)CN(C(=O)c1ccc(F)c(Cl)c1)[C@H](C(=O)N(C)C)C2 | -7% | 1.14 |
| O=C([C@H]1OC[C@H]2CCC[C@H]21)N1Cc2cn[nH]c2C1 | -3% | 0.65 |
| CCN(CC)[C@@H](CNC(=O)CCNC(=O)C1CCCC1)c1ccco1 | 5% | -0.82 |
| Cc1ncsc1CN(C)C(=O)Nc1cc(C(C)C)on1 | 2% | -0.22 |
| O=C(c1ccn(C(F)F)n1)N1CCO[C@H](C2CC2)C1 | 1% | -0.25 |
| O=C(c1cc(C2CC2)no1)N(CC(F)F)c1ccc(F)cc1 | -8% | 0.9 |
| O=C(c1cc(-c2ccccc2)[nH]n1)N1CCCO[C@@H](Cn2cccn2)C1 | -6% | 1.18 |
| Cc1nc(CNC(=O)NCCC(=O)NC2CCCC2)sc1C | 1% | -0.1 |
| O=C(C1CCCN1c1ccccc1)N1CCCC(c2nc(=O)[nH][nH]2)C1 (stereo not drawn) | -10% | 1.59 |
| O=C1C[C@H](c2nc(-c3ccsc3)c[nH]2)CN1Cc1ccncc1 | -14% | 1.59 |
| CN(CCn1ccnc1)Cc1ccc([C@@H]2CCCO2)s1 | -3% | 0.45 |
| O=C([C@@H]1COc2cc(S(=O)(=O)N3CCCc4ccccc43)ccc2O1)N1CCOCC1 | 3% | -0.33 |
| Cc1ccnc(NC(=O)C2CC(=O)N(C3CCS(=O)(=O)C3)C2)c1 (stereo not drawn) | -5% | 0.96 |
| CCCc1ccccc1NC(=O)N1C[C@H]2CC[C@@H](C1)[C@H]2N(C)C | -11% | 1.01 |
| CCN1[C@H](C)CN(C(=O)C2CCCN(S(=O)(=O)CC)C2)C[C@@H]1C (stereo partly drawn) | -10% | 1.33 |
| Cc1noc(C)c1-c1n[nH]c2c1CN(c1nc3ccccc3o1)CC2 | -2% | 0.37 |
| COc1ncc(CN2CCC(N3CCc4ccccc4C3)CC2)cn1 | 14% | -1.81 |
| CCNC(=O)c1c(OC)cc(=O)n2c1CCCCC2 | 1% | -0.13 |
